Source: PMC12136788
The other results are listed elsewhere or left out.

B1: chr6:33573622:33573723:-|3pUTR|ENSG00000030110|unk|total|mutant (ssRNA)
RNA: GGGAGUUCUACAGUCCGACGAUCCGAAGUCUUUGCCUUCUCUGUUCCCUUGCAGGGGUCCCCCCUCAAGAGUACAGAAGCUUCCGCAAGUGUGCACUCCAGCUUCGGAGGGCCCCUGCGUGGGGGCCAGUCAGGCUGCAGAGGCAACAGAGGAUUGAGCAUCA
B2: chr6:122458524:122458701:-|CDS|ENSG00000111897|unk|total|mutant (ssRNA)
RNA: GGGAGUUCUACAGUCCGACGAUCGGAAGUGCCCCGUGUUUGCUAUGCCGAUGCUGUCCCCGUGGAAACAACUCCACUGUAACCCGAUUGAUCUAUGCACUUUUCUUGCUUGUUGGAGUAUGUGCCGCUUGUGUAAUGUUGAUACAACAGAGGAUUGAGCAUCA
B3: ENSG00000107863:be:win_3151|CDS|ENSG00000107863|bound_else_gene|NA|bound_elsewhere_windowed (ssRNA)
RNA: GGGAGUUCUACAGUCCGACGAUCAGGGAUCUAAUUAGUCGAAGAAUAAAAGAAUACAACAAUCUGAUGAGCAAAGCAGAACAGUUGCCAAAAACACCUCGCCAGAGUCUCAGCAUCAGGCAAACUUUGCUUGGUGCUAAAUCACAACAGAGGAUUGAGCAUCA
B4: chr6:106663037:106663138:+|CDS|ENSG00000130348|msi1|FALSE|unique (ssRNA)
RNA: GGGAGUUCUACAGUCCGACGAUCAGCACAGAAAGUGAGACGCCUCAUUGCUAAUGACUUUGUAAAUGCUUUUAACUCUGGAGUAGAUGUCUUGCUAACUCCCACCACCUUGAGUGAGGCAGUACCAUACUUGGAGUUCAUCAACAACAGAGGAUUGAGCAUCA
B5: chr7:44121865:44121972:-|CDS|ENSG00000106628|unk|total|mutant (ssRNA)
RNA: GGGAGUUCUACAGUCCGACGAUCGUGCCAGUGGCAACCUACACCAACUCCUCACAACCCUUCCGGCCCGGAGAGCGCAGCUUCCGCCGGCAGUAUGCCCACAUUUAUGCCACCCGCCUCAUCCAAAUGAGACCCUUCCUGGAGCAACAGAGGAUUGAGCAUCA
B6: chr8:93922960:93923061:+|CDS|ENSG00000164951|msi1|total|mutant (ssRNA)
RNA: GGGAGUUCUACAGUCCGACGAUCCGGCUCAUGGUCAGCAGUCACGCUGUCUAAUGACCACAAUGCUCAAAAUGAAAGAGAACCCGAACGGCUGAAAUUGGAACAUCCAAAGAGUGAGGCCAAGAGUGUCGUGAAACAGGAUCGCAACAGAGGAUUGAGCAUCA

What follows are binders tested against T1, UNK ZnF1-6 (called full-length) (human, UniProt Q9C0B0 30-357) (assay: nsRBNS (natural sequence RNA bind-n-seq); RBNS binding buffer (assumed for nsRBNS): 25 mM Tris pH 7.5, 150 mM KCl, 3 mM MgCl2, 0.01% Triton X-100, 500 ug/ml BSA, 20 U/ml SUPERase-In, 4 C; UNK is unkempt and MSI1 is Musashi-1; names of the RNAs are library labels; protein concentration not given here; high values mean tight binding).
T1 sequence: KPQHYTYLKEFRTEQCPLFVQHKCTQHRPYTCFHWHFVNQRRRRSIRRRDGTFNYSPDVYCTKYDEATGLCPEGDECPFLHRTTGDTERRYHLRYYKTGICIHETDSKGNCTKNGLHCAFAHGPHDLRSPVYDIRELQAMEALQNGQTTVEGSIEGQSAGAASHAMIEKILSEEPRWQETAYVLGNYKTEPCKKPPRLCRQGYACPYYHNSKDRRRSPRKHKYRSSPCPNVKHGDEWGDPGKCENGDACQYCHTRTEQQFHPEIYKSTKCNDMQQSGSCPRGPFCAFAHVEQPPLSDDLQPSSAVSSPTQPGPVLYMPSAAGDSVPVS
Work on B1 yielded a binding signal of 0.495 enrichment R.
For B2, the binding signal was 0.501 enrichment R.
B3 was tested, and the binding signal was 0.84 enrichment R.
B4 showed a binding signal of 0.484 enrichment R.
With B5 the binding signal was 0.852 enrichment R.
For B6, the binding signal was 0.635 enrichment R.
